{"source": "patent US12729458B2", "about": "“Discovery and evolution of biologically active metabolites” (The Regents of the University of Colorado, a Body Corporate, priority 2020, dated 2026)", "system": "TC-PTP (PTPN2)", "conditions": "terpenoid produced in the cell by its pathway (pMBISCmR+ADS or ABA)", "note": "Where two headings read alike, the source gives them in different places."}
{"molecule": "CC(C)=CCC=C(C)C1CC=C(C)CC1", "note": "(stereo not drawn) [α-bisabolene]", "values": [{"measurement": "antibiotic resistance with the PTP1B-specific versus the TC-PTP-specific B2H system", "value": "permitted growth at higher concentrations of antibiotic"}, {"measurement": "antibiotic resistance with the PTP1B-specific versus the TC-PTP-specific B2H system", "setting": "listed as α -bisabolene", "value": "prominent survival advantage"}]}
{"molecule": "C=C(C)[C@@H]1CC[C@@H](C)[C@@H]2CCC(C)=C[C@@H]21", "note": "[amorphadiene]", "values": [{"measurement": "antibiotic resistance with the PTP1B-specific versus the TC-PTP-specific B2H system", "value": "prominent survival advantage"}, {"measurement": "antibiotic resistance with the PTP1B-specific versus the TC-PTP-specific B2H system", "setting": "listed as AD", "value": "permitted growth at higher concentrations of antibiotic"}]}
